In PubChem BioAssay AID1479 (National Center for Advancing Translational Sciences (NCATS), 2009):
Several values for one entry are separate records, joined by “and”; a condition that tells them apart may be missing. Identical values can stand only once. Among all 280,000 compounds or so, about 820 (0.29%) were called active. Another 1% or so got no clear call; they are omitted. Calls come from the whole dose curve; as a rule, active = well fitted curve in either direction with a large enough effect; inconclusive = small, poorly fitted or top-dose-only effect; inactive = flat fitted curve, though single readings scatter. This is a selection; strong and weak results do not stand in their true shares. Some compounds were tested as several samples or in several runs, with calls that do not always agree.

Experiment: Total Fluorescence Counterscreen for Inhibitors of the Interaction of Thyroid Hormone Receptor and Steroid Receptor Coregulator 2
Details: TRb/SRC2 Texas Red total fluorescence interference; series mostly up to 106 µM; fluorescence change, negative = quenching: at the top concentration
In short: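 Human TRβ ligand-binding domain (0.6 uM) and Texas Red SRC2 peptide (20 nM) in Tris buffer with 1 uM T3 and 5% DMSO were incubated with pinned compound for 5 hr at ambient temperature. Total fluorescence was computed as S + 2P (555/632 nm).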
% is set by controls: 0 for no effect and ±100 for the full control effect; potency is the fitted concentration of half-maximal effect; tags give direction and shape of the fitted curve or compound fluorescence and quenching.

Row | Structure (SMILES) | fluorescence change, negative = quenching | Potency
1 | COc1c(O)cc2oc(-c3ccc(O)c(O)c3)cc(=O)c2c1O | inactive: -22% | 
2 | CN1C(=O)C(Cc2c[nH]c3ccccc23)NC1=S (stereo not given) | inactive: -1.13% | 
3 | CCCn1c2ccccc2c2cnn(CC(=O)Nc3cc(C)c(Cl)cc3OC)c(=O)c21 |  | active: 20 µM [quencher]
4 | O=c1cc(-c2ccccc2)oc2cc(O)c(O)c(O)c12 |  | inactive
5 | COc1ccc(-n2c(=O)c3c(C)c(C)sc3n(Cc3ccc(F)cc3)c2=O)c(OC)c1 | inactive: -0.645% | 
6 | O=C(CSc1nnc(SCc2ccccc2)s1)N/N=C/C=C\c1ccco1 | inactive: -21.2% | 
7 | CC(=O)N[C@@H](CS)C(=O)O |  | inactive
8 | CCN(CC)c1cccc(OC2=NS(=O)(=O)c3ccccc32)c1 |  | active: 44.7 µM [fluorescent]
9 | Cc1nn(C)c2c1c(C(F)(F)F)cc(=O)n2C(C)C(=O)NCc1ccccc1Cl (stereo not given) |  | active: 316 µM [quencher]
10 | Nc1nc2nc(-c3ccc(Cl)cc3)cc(C(F)(F)F)n2n1 | inactive: -0.814% | 
11 | COc1ccccc1NC(=O)c1sc2nc(-c3cc4cc(Cl)ccc4oc3=O)[nH]c(=O)c2c1C |  | active: 17.8 µM [quencher]
12 | C[C@H]1[C@H](C)CC[C@]2(C(=O)O)CC[C@]3(C)C(=CCC4[C@@]5(C)CC[C@H](O)C(C)(C)[C@@H]5CC[C@]43C)[C@H]12 (stereo not given in full) | inactive: -0.682% | 
13 | CC(=O)OC[C@@H]1O[C@@H](O/N=C2/C[C@@H](O)[C@@H](O)[C@@H]3[C@@H]4C(=O)N(C[C@@H]5CCCO5)C(=O)[C@H]4CC[C@@H]23)[C@H](OC(C)=O)[C@H](OC(C)=O)[C@@H]1OC(C)=O | inactive: 2.59% [at 11.2 µM] | 
14 | O=C1Cc2c([nH]c3ccc(Br)cc23)-c2ccccc2N1 |  | inactive
15 | O=S(=O)(Nc1cccc(Cl)c1)c1ccc2[nH]c3c(c2c1)CCCCCC3 |  | active: 126 µM [quencher]
16 | NC[C@@H](O)c1ccc(O)c(O)c1 | inactive: -3.5% | 
17 | O=C(NCc1cccc(F)c1)C1CCN(C(=O)c2sccc2-n2cccc2)CC1 |  | active: 25.1 µM [quencher]
18 | Cc1ccc(Nc2nnc(-c3cc4c(ccc5ccccc54)oc3=O)s2)cc1 |  | active: 0.0316 µM [quencher]
19 | NC(=O)C1CCCN1C(=O)C(Cc1cnc[nH]1)NC(=O)C1CCC(=O)N1 (stereo not given) | inactive: 1.85% | 
20 | CC(=O)O[C@H]1C(=O)[C@@]2(C)C([C@H](OC(=O)c3ccccc3)[C@]3(O)C[C@H](OC(=O)[C@H](O)[C@@H](NC(=O)c4ccccc4)c4ccccc4)C(C)=C1C3(C)C)[C@]1(OC(C)=O)CO[C@@H]1C[C@@H]2O (stereo not given in full) | inactive: -1.83% | 
21 | CC[C@H](C)[C@H](NC(=O)[C@H](Cc1ccc(O)cc1)NC(=O)[C@@H](N)C(C)C)C(=O)N[C@@H](Cc1cnc[nH]1)C(=O)N1CCC[C@H]1C(=O)N[C@@H](Cc1ccccc1)C(=O)O | inactive: -6.71% | 
22 | O=C(Cn1c(-c2cccs2)cc2ccccc21)N1CCN(c2ccccc2F)CC1 |  | active: 100 µM [quencher]
23 | CCOc1ccc(CNC(=O)c2cnc3sc(N4CCOCC4)nn3c2=O)cc1OC |  | active: 2000 µM [quencher]
24 | COC(=O)c1ccc(C(=O)OC)c(NC(=O)CN(c2ccccc2)S(=O)(=O)N(C)C)c1 | inactive: 1.18% | 
25 | CCOc1cccc(CNCCNC(=O)c2nonc2N)c1 | inactive: -1.26% | 
26 | Nc1ccn([C@@H]2O[C@H](CO)[C@@H](O)C2O)c(=O)n1 (stereo not given in full) | inactive: 3.23% | 
27 | Cc1cc2nc3ccc(=[N+](C)C)cc-3sc2cc1N |  | active: 44.7 µM [fluorescent]

Row | Structure (SMILES) | fluorescence change, negative = quenching | Potency
28 | COc1cc(OC)cc(C(=O)Nc2ccc(S(=O)(=O)Nc3ncccn3)cc2)c1 | inactive: 1.45% | 
29 | O=C1OC2(c3ccccc31)c1cc(I)c(O)c(I)c1Oc1c2cc(I)c(O)c1I |  | active: 39.8 µM [fluorescent]
30 | COC(=O)[C@@H](c1ccccc1Cl)N1CCc2sccc2C1 | inactive: -0.598% | 
31 | CN[C@@H]1[C@H](O[C@H]2[C@H](O[C@H]3[C@H](O)[C@@H](O)[C@H](N=C(N)N)[C@@H](O)[C@@H]3N=C(N)N)O[C@@H](C)[C@]2(O)C=O)O[C@@H](CO)[C@H](O)[C@H]1O | inactive: -0.208% | 
32 | O=C(COC(=O)c1cc([N+](=O)[O-])ccc1NCCO)c1ccccc1 |  | active: 100 µM [quencher]
33 | O=C(CCc1ccc(O)cc1)c1c(O)cc(O)cc1O[C@@H]1O[C@H](CO)[C@@H](O)[C@H](O)[C@H]1O | inactive: -2.86% | 
34 | CCc1ccc2occ(CC(=O)Nc3c(C(=O)Nc4ccc(C)cc4)oc4ccccc34)c2c1 |  | active: 1120 µM [quencher]
35 | NCCCCCCNS(=O)(=O)c1cccc2c(Cl)cccc12 |  | inactive
36 | CCOC(=O)CC(NC(=O)Cn1nnc(-c2ccccc2F)n1)c1ccccc1Cl (stereo not given) | inactive: -1.78% | 
37 | CNC1C(O)C(O)C(CO)O[C@H]1OC1C(O[C@@H]2C(O)C(O)[C@@H](N=C(N)N)C(O)C2N=C(N)N)OC(C)[C@]1(O)C=O (stereo not given in full) | inactive: 1.5% | 
38 | Cc1cccc(N2CCN(C(=O)C3CCN(c4ncnc5c4nc4n5CCCCC4)CC3)CC2C)c1 (stereo not given) |  | active: 20 µM [quencher]
39 | O=C(Nc1cccc(F)c1)c1ccc(Br)o1 | inactive: -0.459% | 
40 | CC(=O)OC[C@H]1O[C@@H](n2ncc(=O)[nH]c2=O)[C@H](OC(C)=O)[C@@H]1OC(C)=O | inactive: -0.203% | 
41 | COc1ccc(/C=C2\CCn3c2nc2cc(C(=O)O)ccc2c3=O)cc1O |  | active: 0.316 µM [quencher]
42 | CC1=C(/C=C/C(C)=C/C=C/C(C)=C/C(=O)O)C(C)(C)CCC1 |  | inactive
43 | CCO/C([O-])=N/c1c[n+](N2CCOCC2)no1 |  | inactive
44 | C[C@](N)(Cc1ccc(O)c(O)c1)C(=O)O |  | inactive
45 | COc1ccc(S(=O)(=O)/N=C2/NC(=O)/C(=C\c3ccco3)S2)cc1 | inactive: -0.35% | 
46 | Cc1ccc2oc(C(=O)Nc3ccc(S(=O)(=O)N(C)c4ccccc4)cc3)cc(=O)c2c1 |  | active: 100 µM [quencher]
47 | CCCN(CCC)C(=O)Cn1c(=O)n(-c2ccc(CC)cc2)c(=O)c2c3c(sc21)CCC3 |  | active: 0.199 µM [quencher]
48 | CCC(/C=C1\Sc2ccc(OC)cc2N1CCO)=C\c1sc2ccc(OC)cc2[n+]1CCO |  | active: 39.8 µM [fluorescent] and active: 50.1 µM [fluorescent]
49 | O=S(=O)(O)c1ccc(N=Nc2cc(S(=O)(=O)O)c3ccccc3c2O)c2ccccc12 |  | active: 100 µM [fluorescent]
50 | OC[C@H]1NC[C@H](O)[C@@H](O)[C@@H]1O | inactive: -8.5% | 
51 | C=C(C)[C@H]1CC[C@]2(CO)CC[C@]3(C)[C@@H](CC[C@H]4[C@@]5(C)CC[C@@H](O)C(C)(C)[C@@H]5CC[C@@]43C)[C@H]12 | inactive: -6.66% [at 53 µM] | 
52 | C[C@@](N)(Cc1ccc(O)c(O)c1)C(=O)O | inactive: -12.8% | 
53 | CC(=O)O[C@@]1(C(C)=O)CCC2C3C=C(Cl)C4=CC(=O)CC[C@]4(C)C3CC[C@]21C (stereo not given in full) | inactive: 0.353% | 
54 | CCOc1ccc(-n2c(=O)c3c4c(sc3n(CC(=O)NCCCOC)c2=O)CCCCC4)cc1 | inactive: 0.444% | 

Row | Structure (SMILES) | fluorescence change, negative = quenching | Potency
55 | COC(=O)[C@@H]1C2CC3c4[nH]c5cc(OC)ccc5c4CCN3CC2C[C@H](OC(=O)c2cc(OC)c(OC)c(OC)c2)C1OC (stereo not given in full) | inactive: 7.77% | 
56 | O=C(O)/C=C\c1ccc(O)c(O)c1 | inactive: -4.95% [at 53 µM] | 
57 | Oc1c(Cl)cc(Cl)c(Cl)c1Cc1c(O)c(Cl)cc(Cl)c1Cl |  | inactive
58 | Cc1c(N(C)C)c(=O)n(-c2ccccc2)n1C |  | inactive
59 | Oc1ccc(/C=C/c2cc(O)cc(O)c2)cc1 |  | inactive
60 | COC(=O)C1=C(C)N(Cc2ccccc2)C2=C(C(C)=O)C[C@@](O)(C(=O)OC)C(=O)N2C1c1ccccc1 (stereo not given in full) | inactive: -2.85% [at 11.2 µM] | 
61 | COc1cccc2c(=S)c(CCC(C)=O)c(C)[nH]c12 |  | active: 2.82 µM [quencher]
62 | CC(=O)/C(C)=N\O | inactive: -2.35% | 
63 | COc1ccc(S(=O)(=O)Cc2ccc(C(=O)NC3CCCCC3)o2)cc1 |  | active: 5.62 µM [quencher]
64 | CCOc1ccc(CNC(=O)c2cc3oc4ccccc4c3n2C)cc1 | inactive: -6.85% | 
65 | O=C1c2ccc(O)c(O)c2C(=O)c2c(O)ccc(O)c21 |  | active: 44.7 µM [fluorescent]
66 | O[C@H]1COC2C1OC[C@@H]2O (stereo not given in full) | inactive: -3.34% | 
67 | Cc1cc(C)cc(OCC(=O)NCCc2nc3ccccc3[nH]2)c1 | inactive: -1.68% [at 53 µM] | 
68 | CCc1ccc(OCC(=O)NCC(c2ccc(Cl)cc2)N2CCOCC2)cc1 (stereo not given) |  | active: 10 µM [quencher]
69 | Cc1ccc(CN(Cc2ccco2)C(=O)COc2ccc(Cl)cc2Cl)cc1 |  | active: 0.0316 µM [quencher]
70 | O=C(O)c1ccc(Nc2ncnc3scc(-c4ccccc4)c23)cc1 | inactive: -0.473% | 
71 | Cc1ccc(-c2cn3c(n2)sc2cc(C(=O)NCc4cccs4)ccc23)cc1 |  | active: 3.16 µM [quencher]
72 | CCN(CC)c1ccc(NC(=O)C(NS(=O)(=O)c2cccs2)C(C)C)c(C)c1 (stereo not given) |  | active: 4.47 µM [quencher]
73 | O=C(O)CCCC[C@@H]1CCSS1 | inactive: -0.961% | 
74 | Cc1ccc(CN2CCN(/N=C/C(Br)=C\c3ccccc3)CC2)cc1 | inactive: -2.82% | 
75 | CC[C@@H]1C=C(C)C[C@H](C)C[C@H](OC)[C@H]2O[C@@](O)(C(=O)C(=O)N3CCCC[C@H]3C(=O)O[C@H](/C(C)=C/[C@@H]3CC[C@@H](O)[C@H](OC)C3)[C@H](C)[C@@H](O)CC1=O)[C@H](C)C[C@@H]2OC | inactive: -4.68% | 
76 | NC(=O)[C@@H]1CCCN1C(=O)C(Cc1cnc[nH]1)NC(=O)C1CCC(=O)N1 (stereo not given in full) | inactive: 0.881% | 
77 | CCC1CN(C(=O)N2CCC(C(=O)N3CCN(c4ccccc4F)CC3)CC2)c2ccccc2O1 (stereo not given) |  | active: 0.0141 µM [quencher]
78 | Cc1c(C)c2c(c(C)c1O)CCC(C)(CCCC(C)CCCC(C)CCCC(C)C)O2 (stereo not given) | inactive: 0.463% | 
79 | CC1CN2C(CCC(C)C2c2ccc(Br)cc2)C(=O)O1 (stereo not given) | inactive: -1.19% [at 11.2 µM] and inactive: -0.991% [at 11.2 µM] | 
80 | O=C1c2ccccc2-c2onc3c(Oc4ccccc4)cc(O)c1c23 |  | active: 35.5 µM [fluorescent]
